# Values quoted from earlier work, collected in PMC12064607 (Clinical Pharmacokinetics, 2025).
# Assays:
# [1] = tested on: UT-NC002-1T/Human/2020/Tokyo; details: cited from earlier work
# [2] = human, in vivo; cited from earlier work
compound,measurement,setting,value
"CCC(CC)COC(=O)[C@H](C)N[P@](=O)(OC[C@H]1O[C@@](C#N)(c2ccc3c(N)ncnn23)[C@H](O)[C@@H]1O)Oc1ccccc1 [Remdesivir, reference compound]",EC50,[1],1700 nM
same,volume of distribution,[2],157 L
